# Test results: the supplement of paper PMC12355420
# Structures can show the parent of a compound that is named as a salt. Some of the results follow. Cut-off read from the data, not from the text of the source: active = 0.5 or less and inactive = the rest. Single values are uncertain, as repeats are few or missing.
# Experiments:
# Conditions in all cases: 50 µM; 24 h
# [1] = test system: HeLa VPS33A reporter cells; test: relative cell viability (CellMask signal) vs DMSO (fraction of DMSO); higher = less cytotoxic;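 note: primary screen of an FDA-approved drug library in HeLa reporter cells in 96-well format, CellMask signal normalized to DMSO-treated wells set as 1, under 0.5 deemed highly cytotoxic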
# [2] = test system: HeLa VPS33A R498W KI + HA-SDC1-FLAG; test: relative GAG core protein HA-SDC1 amount per cell number vs DMSO (fraction of DMSO); higher = more SDC1 (GAG core protein);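 note: HA-SDC1 level read out by In-Cell Western staining with an anti-HA antibody against the N-terminal tag, screening FDA-approved library drugs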
# [3] = test system: HeLa VPS33A KO + NLuc-VPS33A R498W; test: relative mutant VPS33A R498W amount (NanoLuc luminescence) vs DMSO (fraction of DMSO); HeLa model of a glycosaminoglycan (GAG) storage disease; KI is knock-in and KO knock-out; SDC1 is syndecan 1; higher = higher mutant VPS33A level;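 note: screen of an FDA-approved drug library, NanoLuc luminescence read after lysing the treated cells, taken as a measure of mutant VPS33A protein stability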
Compound,relative cell viability [1],relative GAG core protein HA-SDC1 amount per cell number [2],relative mutant VPS33A R498W amount [3]
CC1OC(O)C(O)C(O)C1O [L-(-)-Fucose],1.19,inactive: 0.739,1.13
Cc1nccn1CC1CCc2c(c3ccccc3n2C)C1=O (configuration not stated) [Ondansetron hydrochloride dihydrate],1.44,inactive: 1.07,0.712
c1ccc2c(CC3=NCCN3)cccc2c1 [Naphazoline HCl],1.28,inactive: 0.772,1.14
c1cc(CN2CCCNCCNCCCNCC2)ccc1CN1CCCNCCNCCCNCC1 [Plerixafor (AMD3100)],0.979,inactive: 1.2,0.82
CCCCC(=O)O[C@H]1CC[C@H]2[C@@H]3CCc4cc(O)ccc4[C@H]3CC[C@]12C [Estradiol valerate],1.04,inactive: 1.17,1.24
CCCCc1nc(Cl)c(CO)n1Cc1ccc(-c2ccccc2-c2nnn[nH]2)cc1 [Losartan Potassium (DuP 753)],1.13,inactive: 1.2,1.33
O=C(O)c1cc(=O)[nH]c(=O)[nH]1 [Orotic acid],1.36,inactive: 0.816,0.798
CC(O)(P(=O)(O)O)P(=O)(O)O [Etidronate],0.835,inactive: 1.15,1.1
Nc1ccc(S(=O)(=O)Nc2ccnn2-c2ccccc2)cc1 [Sulfaphenazole],1.02,inactive: 0.794,1.39
CC(=O)N(O)CCCCCNC(=O)CCC(=O)N(O)CCCCCNC(=O)CCC(=O)N(O)CCCCCN [Deferoxamine mesylate],1.17,inactive: 0.859,2.09
Cc1cc(C2CCCCC2)n(O)c(=O)c1 [Ciclopirox ethanolamine],1.03,active: 0.31,2.25
C#C[C@]1(O)CC[C@H]2[C@@H]3CCC4=CC(=O)CC[C@@H]4[C@H]3CC[C@@]21C [Norethindrone],0.93,inactive: 0.887,1.16
C[C@H](N)C(=O)O [L-Alanine],1.03,inactive: 0.993,1.09
CNC[C@H](O)c1ccc(O)c(O)c1 [Epinephrine Bitartrate],1.22,inactive: 1.14,1.54
CCOc1ccc(NC(C)=O)cc1 [Phenacetin],1.24,inactive: 0.78,1.17
CC(=O)N(c1onc(C)c1C)S(=O)(=O)c1ccc(N)cc1 [Sulfisoxazole Acetyl],1.02,active: 0.462,0.774
O=C(O[C@@H]1C[C@@H]2C[C@H]3C[C@H](C1)N2CC3=O)c1c[nH]c2ccccc12 [Dolasetron],1.05,inactive: 0.873,1.08
"CC[C@H](C)[C@H](N)C(=O)O [(2S,3S)-2-Amino-3-methylpentanoic acid]",0.946,inactive: 0.911,1.67
CS(=O)(=O)OCCCCOS(C)(=O)=O [Busulfan],1.4,inactive: 1.68,0.856
CCCC(CCC)C(=O)O [Valproic acid sodium salt (Sodium valproate)],1.06,inactive: 1.27,1.08

Compound,relative cell viability [1],relative GAG core protein HA-SDC1 amount per cell number [2],relative mutant VPS33A R498W amount [3]
CCCCCCCCCCCCCCC(=O)O [Pentadecanoic Acid],0.957,inactive: 0.779,0.596
CC(C)NCC(O)COc1ccc(CCOCC2CC2)cc1 (configuration not stated) [Betaxolol],1.2,inactive: 0.933,1.19
Cc1cnc(C(=O)NCCc2ccc(S(=O)(=O)NC(=O)NC3CCCCC3)cc2)cn1 [Glipizide],1.11,inactive: 1.17,0.875
CC(C)(C)NCC(O)COc1cccc2c1CCC(=O)N2 (configuration not stated) [Carteolol HCl],1.09,inactive: 0.978,1.25
CCN1CCCC1CNC(=O)c1cc(S(=O)(=O)CC)c(N)cc1OC (configuration not stated) [Amisulpride],1.09,inactive: 1.18,1.51
CC(=O)[C@H]1CC[C@H]2[C@@H]3CC=C4C[C@@H](O)CC[C@]4(C)[C@H]3CC[C@]12C [Pregnenolone],1.18,inactive: 1.33,1.2
C[C@@H]1O[C@@H](OC[C@H]2O[C@@H](Oc3c(-c4ccc(OCCO)c(OCCO)c4)oc4cc(OCCO)cc(O)c4c3=O)[C@H](O)[C@@H](O)[C@@H]2O)[C@H](O)[C@H](O)[C@H]1O [Troxerutin],1.07,inactive: 1.05,1.55
CCCSc1nc(N[C@@H]2C[C@H]2c2ccc(F)c(F)c2)c2nnn([C@@H]3C[C@H](OCCO)[C@@H](O)[C@H]3O)c2n1 [Ticagrelor],0.947,inactive: 0.783,1.21
COc1c(N2CCNC(C)C2)c(F)cc2c(=O)c(C(=O)O)cn(C3CC3)c12 (configuration not stated) [Gatifloxacin],1.43,inactive: 0.904,1.19
CC(C)NCC(O)c1ccc(NS(C)(=O)=O)cc1 (configuration not stated) [Sotalol hydrochloride],0.916,inactive: 0.793,1.28
Cc1ccc(-c2cc(C(F)(F)F)nn2-c2ccc(S(N)(=O)=O)cc2)cc1 [Celecoxib],0.927,inactive: 0.953,0.535
CCOC(=O)N[C@@H]1CC[C@@H]2[C@@H](C1)C[C@H]1C(=O)O[C@H](C)[C@H]1[C@H]2/C=C/c1ccc(-c2cccc(F)c2)cn1 [Vorapaxar],1.3,inactive: 0.847,0.57
CN[C@@H]1[C@@H](O[C@H]2O[C@H](CO)[C@@H](N)[C@H](O)[C@H]2O)OC2C[C@@H](N)[C@@H](O[C@H]3[C@H](O)[C@@H](O)[C@H](N)C[C@@H]3N)OC2[C@@H]1O (some centres not stated) [Apramycin Sulfate],1.05,inactive: 1.33,0.809
NC(=O)c1ccccc1O [Salicylamide],1.04,inactive: 0.863,1.11
C=Cc1c(C)c2cc3[nH]c(cc4nc(cc5nc(cc1[nH]2)C(C)=C5CCC(=O)O)C(CCC(=O)O)=C4C)c(C)c3C=C [Protoporphyrin IX],1.63,active: 0.353,0.284
CS(=O)(=O)c1ccc([C@@H](O)[C@@H](CO)NC(=O)C(Cl)Cl)cc1 [Thiamphenicol],1.21,inactive: 0.664,1.11
O=C1O[C@H](CO)[C@@H](O)[C@H](O)[C@H]1O [delta-Gluconolactone],1.06,inactive: 0.86,1.37
Cc1ncc([N+](=O)[O-])n1CC(C)O (configuration not stated) [Secnidazole],0.968,inactive: 0.806,1.25
O=C(O)C1(C(=O)O)CCC1.[NH2-].[NH2-].[Pt+2] [Carboplatin],1.17,inactive: 0.727,1.85
CCCCCCOC(=O)NC(=N)c1ccc(NCc2nc3cc(C(=O)N(CCC(=O)OCC)c4ccccn4)ccc3n2C)cc1 [Dabigatran etexilate mesylate],0.867,active: 0.473,0.242

Compound,relative cell viability [1],relative GAG core protein HA-SDC1 amount per cell number [2],relative mutant VPS33A R498W amount [3]
C[C@]12CCC(=O)C=C1C=C[C@@H]1[C@@H]2CC[C@@]2(C)[C@H]1CC[C@@]21CCC(=O)O1 [Canrenone],1.18,inactive: 0.572,0.682
Cc1ccc(S(=O)(=O)NC(=O)NN2CC3CCCC3C2)cc1 (configuration not stated) [Gliclazide],0.927,active: 0.402,0.874
CCOC(=O)c1c(C)n(C)c2ccc(O)cc12 [Mecarbinate],0.928,inactive: 0.985,1.41
COc1cc(C(C)=O)ccc1OCCCN1CCC(c2noc3cc(F)ccc23)CC1 [Iloperidone],1.02,inactive: 1.19,1.09
N#CC1(c2ccc(NC(=O)c3cccnc3NCc3ccncc3)cc2)CCCC1 [Apatinib],0.984,inactive: 0.638,0.299
N=C(N)NCCN1CCCCCCC1 [Guanethidine (sulfate)],1.14,inactive: 0.92,0.924
CC1CCc2cc(F)cc3c(=O)c(C(=O)O)cn1c23 (configuration not stated) [Flumequine],0.979,inactive: 0.7,1.53
CC(C)=CCC/C(C)=C/CO [Geraniol],0.942,inactive: 0.968,1.45
Cc1ccc(-c2ncc(Cl)cc2-c2ccc(S(C)(=O)=O)cc2)cn1 [Etoricoxib],1.09,inactive: 0.933,0.707
COc1cc(C2Oc3cc([C@H]4Oc5cc(O)cc(O)c5C(=O)[C@@H]4O)ccc3OC2CO)ccc1O (some centres not stated) [Silymarin],1.02,inactive: 0.902,0.573
Cc1[nH]c(=O)c(C#N)cc1-c1ccc2nccn2c1 [Olprinone Hydrochloride],1.21,inactive: 1.49,1.46
CC(=O)SCC(Cc1ccccc1)C(=O)NCC(=O)OCc1ccccc1 (configuration not stated) [Racecadotril],0.908,inactive: 1.05,1.29
N[C@@H]1CN(c2c(F)cc3c(=O)c(C(=O)O)cn([C@@H]4C[C@@H]4F)c3c2Cl)CC12CC2 [Sitafloxacin Hydrate],1.02,inactive: 0.794,2.25
CNC[C@H](O)c1cccc(O)c1 [Phenylephrine HCl],1.23,inactive: 0.96,1.02
"Nc1ccccc1NC(=O)c1ccc(CNC(=O)OCc2cccnc2)cc1 [Entinostat (MS-275,SNDX-275)]",0.687,inactive: 0.749,4.79
O=C1CCc2ccc(OCCCCN3CCN(c4cccc(Cl)c4Cl)CC3)cc2N1 [Aripiprazole],1.03,inactive: 0.693,0.567
Cc1ccc2c(Cl)cc(Cl)c(O)c2n1 [Chlorquinaldol],0.955,active: 0.482,1.64
COc1ccc(-c2nc3cc(C4=NNC(=O)CC4C)ccc3[nH]2)cc1 (configuration not stated) [Pimobendan],1.04,inactive: 1.1,1.16
C[C@@H](O)[C@H]1C(=O)N2C(C(=O)[O-])=C(SC3Cn4cnc[n+]4C3)[C@H](C)[C@H]12 (some centres not stated) [Biapenem],1.14,inactive: 1.59,1.3
